Source: patent US9777070B2, “Anti-PTK7 antibody-drug conjugates” (Pfizer Inc., priority 2014, dated 2017)

Columns and labels:
H661 lung cancer cells = experiment: Microtubule structure by anti-tubulin immunofluorescence; assay type: cell-based, human; conditions: 48 hours, ADC or mAb 0-4 μg/mL, free 0101 0.1-10 nM, FIG. 22
Protocol: The cells were then fixed in 3% paraformaldehyde, washed with PBS, permeabilized with 0.5% Triton-X® (Sigma Chemical) in PBS, washed with PBS, and incubated with blocking buffer (5% normal goat serum and 0.2% Tween-20 in PBS). Cells were incubated with the primary anti-α-tubulin antibody (Sigma NoT9026, clone DM1A) in blocking buffer for 1 hour at room temperature. Afterwards, the cells were washed with PBS and incubated for 30 minutes with an Alexa Fluor® 488-conjugated secondary antibody (Invitrogen Corp) and 4′,6-diamidino-2-phenylindole (DAPI) to stain the DNA. The cells were visualized on a Zeiss LSM 510 Meta confocal microscope.

Cynomolgus Monkey PTK7 = experiment: SPR of hu24 mAb and hu24-vc0101 ADC (Example 11); assay type: binding; conditions: Cynomolgus PTK7 ectodomain
Protocol: (§1) Surface plasmon resonance (SPR) analysis was conducted to characterize the binding characteristics of the mAb and ADC to human and cynomolgus monkey PTK7 protein ectodomains. […] There was no significant difference in affinities between mAb and ADC for human or cynomolgus monkey PTK7 protein (Table 16).

human PTK7 = biological target: T1, human PTK7 (Homo sapiens, UniProt Q13308); experiment: SPR of hu24 mAb and hu24-vc0101 ADC (Example 11); assay type: binding; conditions: Human PTK7 ectodomain
T1 construct: human and cynomolgus monkey PTK7 protein ectodomains
T1 sequence (Q13308 31-704 limits assumed): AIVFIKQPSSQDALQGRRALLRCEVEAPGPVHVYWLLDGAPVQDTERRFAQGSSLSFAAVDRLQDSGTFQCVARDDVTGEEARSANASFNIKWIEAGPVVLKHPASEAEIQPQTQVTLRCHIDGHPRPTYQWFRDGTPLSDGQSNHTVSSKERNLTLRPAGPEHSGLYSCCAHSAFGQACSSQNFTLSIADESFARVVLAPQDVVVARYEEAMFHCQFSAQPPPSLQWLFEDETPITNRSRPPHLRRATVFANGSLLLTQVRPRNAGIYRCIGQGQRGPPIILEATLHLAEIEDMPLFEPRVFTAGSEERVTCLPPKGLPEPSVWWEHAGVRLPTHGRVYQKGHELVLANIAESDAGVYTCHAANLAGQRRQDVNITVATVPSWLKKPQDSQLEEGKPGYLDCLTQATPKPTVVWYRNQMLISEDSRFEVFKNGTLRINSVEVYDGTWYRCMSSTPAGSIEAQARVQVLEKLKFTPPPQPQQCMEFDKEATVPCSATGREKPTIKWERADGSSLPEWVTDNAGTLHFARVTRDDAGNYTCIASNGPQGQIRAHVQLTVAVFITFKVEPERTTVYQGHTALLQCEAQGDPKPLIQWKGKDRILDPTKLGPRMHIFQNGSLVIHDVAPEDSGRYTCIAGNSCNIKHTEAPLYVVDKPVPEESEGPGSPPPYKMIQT
Protocol: as §1

[1] = biological target: T2, PTK7 on cancer cell lines (H661, H446, U2OS) (Homo sapiens, UniProt Q13308); experiment: Flow cytometry binding of hu24 mAb to cancer cell lines with endogenous PTK7 (Example 3)
T2 construct: cancer cell lines with endogenous expression of PTK7; endogenous in cells; host or cells: cultured cancer cell lines (e.g. H661, H446, U2OS, H520, H1048, OE19, OE21, H1975, EKVX)
T2 sequence (Q13308 31-1070): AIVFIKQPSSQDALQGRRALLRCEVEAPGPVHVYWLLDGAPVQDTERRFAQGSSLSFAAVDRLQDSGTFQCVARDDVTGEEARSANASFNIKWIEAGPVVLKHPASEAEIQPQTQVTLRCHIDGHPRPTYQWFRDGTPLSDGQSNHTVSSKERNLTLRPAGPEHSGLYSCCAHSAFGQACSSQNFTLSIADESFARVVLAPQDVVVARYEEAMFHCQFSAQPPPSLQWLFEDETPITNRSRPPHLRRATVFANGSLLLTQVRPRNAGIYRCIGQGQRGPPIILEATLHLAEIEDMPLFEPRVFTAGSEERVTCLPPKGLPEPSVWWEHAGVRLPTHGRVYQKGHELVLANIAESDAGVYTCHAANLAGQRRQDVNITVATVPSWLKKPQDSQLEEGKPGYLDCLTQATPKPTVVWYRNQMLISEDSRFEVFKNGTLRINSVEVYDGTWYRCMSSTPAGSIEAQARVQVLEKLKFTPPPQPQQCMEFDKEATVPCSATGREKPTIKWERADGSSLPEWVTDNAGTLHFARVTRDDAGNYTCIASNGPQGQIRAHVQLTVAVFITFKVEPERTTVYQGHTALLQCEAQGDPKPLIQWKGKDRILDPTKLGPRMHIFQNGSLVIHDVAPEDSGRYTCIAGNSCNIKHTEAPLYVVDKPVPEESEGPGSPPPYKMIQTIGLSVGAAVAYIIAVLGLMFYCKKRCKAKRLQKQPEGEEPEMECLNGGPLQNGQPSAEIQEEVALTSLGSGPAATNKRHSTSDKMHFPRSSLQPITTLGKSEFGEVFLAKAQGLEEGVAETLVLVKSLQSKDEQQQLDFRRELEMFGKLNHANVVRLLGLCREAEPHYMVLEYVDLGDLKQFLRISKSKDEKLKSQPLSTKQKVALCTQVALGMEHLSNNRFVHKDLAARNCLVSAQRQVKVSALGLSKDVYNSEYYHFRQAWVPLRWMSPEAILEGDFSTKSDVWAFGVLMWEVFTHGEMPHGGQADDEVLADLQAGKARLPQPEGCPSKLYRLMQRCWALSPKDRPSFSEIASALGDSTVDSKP
Protocol: Briefly, adherent cells were dissociated with TrypLE™ Express (Gibco® No 12604-021) which was then neutralized with culture media. Suspension cells were harvested by centrifugation. Cells were resuspended in staining buffer (PBS with 3% BSA) with the stated concentration of mAb and incubated on ice for 30 minutes. Cells were washed in staining buffer, resuspended in staining buffer with phycoerythrin (PE)-labeled anti-human antibody (Jackson ImmunoResearch No 109-115-098) and incubated on ice for 30 minutes. Cells were washed, resuspended in staining buffer with 7-AAD viability stain (BD Biosciences, Pharmingen No 51-68981E) and analyzed by flow cytometry with a BD FACSCalibur™. The mean fluorescence intensity (MFI) in the PE channel of the viable cell population was determined for each sample.

B1: hu24 (antibody)
heavy: QVQLVQSGPEVKKPGASVKVSCKASGYTFTDYAVHWVRQAPGKRLEWIGVISTYNDYTYNNQDFKGRVTMTRDTSASTAYMELSRLRSEDTAVYYCARGNSYFYALDYWGQGTSVTVSS[letters of human IgG1 constant region omitted]
light: EIVLTQSPATLSLSPGERATLSCRASESVDSYGKSFMHWYQQKPGQAPRLLIYRASNLESGIPARFSGSGSGTDFTLTISSLEPEDFAVYYCQQSNEDPWTFGGGTKLEIKRTVAAPSVFIFPPSDEQLKSGTASVVCLLNNFYPREAKVQWKVDNALQSGNSQESVTEQDSKDSTYSLSSTLTLSKADYEKHKVYACEVTHQGLSSPVTKSFNRGEC
effect on microtubule structure and cell cycle (H661 lung cancer cells): neither unconjugated hu24 mAb nor negative control mAb elicited these responses | Kd (Cynomolgus Monkey PTK7): 1.2 nM | Kd (human PTK7): 0.7 nM | MFI ([1]; H446 (lung cancer), 0.1 μg/mL): 95 | MFI ([1]; H446 (lung cancer), 1 μg/mL): 342 | MFI ([1]; H446 (lung cancer), 10 μg/mL): 411 | MFI ([1]; H661 (lung cancer), 0.1 μg/mL): 60 | MFI ([1]; H661 (lung cancer), 1 μg/mL): 243 | MFI ([1]; H661 (lung cancer), 10 μg/mL): 309 | MFI ([1]; U2OS (osteosarcoma), 0.1 μg/mL): 122 | MFI ([1]; U2OS (osteosarcoma), 1 μg/mL): 385 | MFI ([1]; U2OS (osteosarcoma), 10 μg/mL): 431

B2: hu24-vc0101: hu24 conjugated through cysteines to vc0101 linker-payload; average DAR approximately 4 (conjugate)
heavy: QVQLVQSGPEVKKPGASVKVSCKASGYTFTDYAVHWVRQAPGKRLEWIGVISTYNDYTYNNQDFKGRVTMTRDTSASTAYMELSRLRSEDTAVYYCARGNSYFYALDYWGQGTSVTVSS[letters of human IgG1 constant region omitted]
light: EIVLTQSPATLSLSPGERATLSCRASESVDSYGKSFMHWYQQKPGQAPRLLIYRASNLESGIPARFSGSGSGTDFTLTISSLEPEDFAVYYCQQSNEDPWTFGGGTKLEIKRTVAAPSVFIFPPSDEQLKSGTASVVCLLNNFYPREAKVQWKVDNALQSGNSQESVTEQDSKDSTYSLSSTLTLSKADYEKHKVYACEVTHQGLSSPVTKSFNRGEC
effect on microtubule structure and cell cycle (H661 lung cancer cells): disrupted microtubule structure and led to G2/M cell cycle arrest | Kd (Cynomolgus Monkey PTK7): 3.6 nM | Kd (human PTK7): 1.4 nM
